The list shows a part of the results.
System: PfAP2-HC AP2 domain (GST-tagged)
Assay: gcPBM binding intensity (ln(normalized median fluorescence intensity)); higher = stronger DNA binding
Method in brief: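 An Agilent 4 × 180k array carrying primer-extended double-stranded 36-bp intergenic genomic probes and negative controls received GST-tagged P. falciparum DNA-binding domains expressed in E. coli, about 25 μg on average, for 1 h. The binding buffer contained 1× PBS, 1% milk, 0.2 mg/ml BSA, 0.5% salmon testes DNA and 0.03% Triton X-100. Binding intensity is the top Masliner-normalised natural-log median intensity across replicate spots of either probe orientation, read after Alexa488 anti-GST antibody staining and a 488 nm scan.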

Row | Sequence | gcPBM binding intensity (ln)
1 | TATATTTATAAGTGTACACATTATATAAATCCCTAT [CACACA_site6122] | 9.57
2 | TGGGAACAATATATTTGTACTTAAATAAATAAAAAA [XGTACX_site6762] | 9.47
3 | GAACAAAATGATAGAAGTACAAATATTTATTTTGTT [XGTACX_site7146] | 9.69
4 | TAAGAAAAATATATATGTACACATATATATATATAT [XGTACX_site8542] | 9.61
5 | TGTATGTTATATACAACACACAAAAAAAAACAAGTT [CACACA_site301] | 9.95
6 | AACTTTTATACGGATACACACAAAAAAAAATAAAAA [CACACA_site6547] | 9.72
7 | TACAATATTTCGAGCTTGCACTTTTATTAAGTAAAT | 9.52
8 | TATCTGTATTTGTATACACACAAATGTATTTATTTA [CACACA_site4830] | 9.9
9 | TATACAGACAGACACACACACATATATAAATATGTA [CACACA_site6912] | 10.6
10 | ATTATTATTTTTAACTGTACATAGATATAGATATCC [XGTACX_site8714] | 9.49
11 | TAATTAGCATAATACACATGCATACATTTATATATA [TGCATGCA_site542] | 9.65
12 | TACATATATCTATGTGTGCACTTATTTCCGGACAAA | 9.82
13 | AAAAAAAAAAAACATACACACAAGAACAAAATATGA [CACACA_site3002] | 10.6
14 | AGTCTTTTACATTGCACACACATTTCTTTCCTTTTG [CACACA_site2988] | 10.5
15 | ATGTGTATACTAAGAACACACAAGTTACTTGGTGTT [CACACA_site6864] | 9.78
16 | TATTTAAAAGATGAAAGTACACATTTAATTACATTT [XGTACX_site3781] | 9.36
17 | TATATTTAACATACTTTTTTTTTTTTTTTTTTTTTT [CACACA_negctrl_site938] | 9.27
18 | TTATAACTTTTCACAAGTACATATATATATGTATAA [XGTACX_site2306] | 9.53
19 | ATATATATGTTTTTATGTACATATTTTTCTCCTTCA [XGTACX_site5899] | 9.74
20 | TTTGGAAAGCGTGATTTTTGACAAACACAAAAAAAA [CACACA_negctrl_site651] | 9.41
21 | AATAAATTCATGAATTGTACGTAATGATAACATGAA [XGTACX_site2591] | 9.83
22 | ATTTTCTTTTTTAAACGTACACATATTAAATATATA [XGTACX_site7773] | 9.68
23 | TTTTTATTCCAGTATTCACACACGAATAACCACATA [CACACA_site1897] | 9.82

Row | Sequence | gcPBM binding intensity (ln)
24 | ATTATTTTATGAGACATAAAAAAAAAAAAAAAAAAA [CACACA_negctrl_site1067] | 8.7
25 | AGATGAGAGATATATACACACAATAATACCTATTTA [CACACA_site6542] | 9.92
26 | ATATTATTTATAAAAGTGCAAAAATCACTTCTTTTA [GTGCAC_site9656] | 9.43
27 | TTTAAAAAGTTATGAAGTACATATATATATATATAT [XGTACX_site2188] | 9.46
28 | ATTTCCTTGAATGTTGCATGCTGTATTTTAATTAAA [TGCATGCA_site280] | 9.67
29 | AAAAAAAGGAAATTTACACACACATATAATATACAT [CACACA_site3297] | 10.2
30 | AAAAAAAAAAAGTGCACACATAAAAATATGATCTAA [CACACA_site572] | 10.2
31 | TAAATTTTTCTAAGTGCATGTTAATTTTTCAATTTA [TGCATGCA_site906] | 9.44
32 | TAGATTATTATACTAGTGCAAATTATTTAAGAAAAA | 9.5
33 | TGCACGCACAGACACACACACAACTAAAAAATAATG [CACACA_site7250] | 10.3
34 | AAAAAAAGGTAAAATTGTACATACGCACAAAAATAT [XGTACX_site2887] | 9.88
35 | TAATATCGTATATGAGTGCAATATTTTAGATTTTGA | 9.49
36 | AATATATCAAAAATGATGACATAAATATATTAATTT [GTGCAC_negctrl_site530] | 9.62
37 | TATATATATATATATATATATATATATGTATATATG [XGTACX_negctrl_site242] | 9.34
38 | ATAATCCACAAGCACACACACACACCCATATATATA [CACACA_site1268] | 10.6
39 | AACTTTAAACCCTGAACACACACAAATACACCCAAA [CACACA_site7971] | 10.2
40 | CTTTTCTATTTTTTCGTGCACTATAAATATTTTAAT | 9.91
41 | CACCAAAATATATGTACATATGATAAATGTGAATAT [GTGCAC_negctrl_site83] | 9.76
42 | AAAATTATCGTTATATGTACGCATCTTAATACGTAT [XGTACX_site4063] | 9.76
43 | GTCTATATATTTTAGGTGCAACGTAAATGTAAAAAT | 9.71
44 | TTTTACAATATTTTGTGTACTTATATTATGAGCTTA [XGTACX_site3287] | 9.58
45 | TAACTTTTTTTTTTTTTTTTTTAACTTTTATGTAAT [GTGCAC_negctrl_site156] | 9.45

Source: the supplement of paper PMC11417369
